Laboratory results as given in PubChem BioAssay AID1508642 (National Center for Advancing Translational Sciences (NCATS), 2021).
Out of some 43,000 compounds screened, about 200 (0.47%) were called active. About 12% were inconclusive and are not listed. The call rests on the fitted dose curve; in most records, active means well fitted cell-killing curve with a large enough effect; inconclusive means small, poorly fitted or top-dose-only effect, or effect the other way; inactive means flat fitted curve, though single readings scatter. The list shows a part of the results.

Experiment: Cell viability qHTS assay in S16 Pmp22-F2sN cells; further: nearly all actives have a fitted effect of over 65% in size
Conditions: S16 Pmp22-F2sN Schwann cells (luciferase reporters placed in the Pmp22 gene) viability, CellTiter-Glo, 24 h; series mostly up to 57.5 µM; activity change, negative = cytotoxicity: at the top concentration
Outline: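 Rat S16 Schwann reporter line, 24 h treatment with library compounds delivered at 23 nL per well. Cell viability by CellTiter-Glo luminescence.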
On the % scale 0 is the no-effect control and ±100 the full control effect.

SMILES	activity change, negative = cytotoxicity
Cc1ccc(/C=C(\C#N)C(=O)Nc2cccc(Cl)c2)o1	inactive: -2.85%
CCN(CC)C(=O)Cn1c(=O)n(CC2CCC(C(=O)NC)CC2)c(=O)c2sccc21 (stereo not drawn)	inactive: -10.9%
CCC1Oc2ccccc2N(CC(=O)NCc2cc(OC)ccc2OC)C1=O (stereo not drawn)	inactive: -5.1%
CCCC(=O)N1CCc2cc(OC)c(OC)cc2C1COc1ccc(C(=O)OC)cc1 (stereo not drawn)	inactive: -2.91%
CCOc1ccc(CCNC(=O)CCCc2nnc3n(CC)c(=O)c4sccc4n23)cc1	inactive: -4.31%
CCSc1ncc(Cl)c(C(=O)Nc2c(C(=O)Nc3ccccc3)oc3ccccc23)n1	inactive: -6.85%
Cn1c(SCC(=O)Nc2nc3ccccc3s2)ncc(C(=O)Nc2ccccc2)c1=O	inactive: 1.27%
CCc1nc(-c2cc(S(=O)(=O)N3CCN(c4ccccc4)CC3)ccc2OC)no1	inactive: 13.7%
COc1cccc(CNC(=O)CN2C(=O)N(c3ccc(C)cc3C)S(=O)(=O)c3ccccc32)c1OC	inactive: -2.72%
CCc1nn(CC(=O)NCCCN(CC)CC)c(=O)c2cc3occc3n12	inactive: 6.11%
Cc1ccc2onc(CNC(=O)NCc3ccc(Cl)cc3)c2c1	inactive: -9.21%
O=C1COc2cc(S(=O)(=O)CCC(=O)NC3CCCCC3)c(Cl)cc2N1	inactive: 1.56%
COc1ccc(C)cc1-n1cnc2cc(C(=O)NC3CCCCCC3)ccc21	inactive: -1.08%
Cn1c(=O)c2c(-c3ccc(Br)cc3)n(Cc3ccc(F)cc3)cc2n(C)c1=O	inactive: -14.2%
COc1cccc(C(=O)Nc2cccc(-c3nc4ncccn4c3C)c2)c1	inactive: -11.5%
O=C(O)c1c(-c2ccccc2)oc2ccc(OCc3c(F)cccc3Cl)cc12	inactive: 4.32%
Cc1ccn2c(=O)cc(COc3ccc(NC(=O)COc4ccc(C)c(C)c4)cc3)nc2c1	inactive: 2.73%
Cc1ccc(OCC(=O)NCC(c2ccc(Cl)cc2)N2CCOCC2)cc1C (stereo not drawn)	inactive: 1.83%
CCOc1cc(C2c3c(oc4ccccc4c3=O)C(=O)N2Cc2ccc(OC)cc2)ccc1O (stereo not drawn)	inactive: 0.566%
COc1ccc(C)cc1NC(=O)c1cnc2ccc(C)cn2c1=O	inactive: -0.289%
O=c1c2ccccc2n(Cc2c(F)cccc2Cl)c(=O)n1CCc1ccccc1	inactive: 18.6%
Cc1ccc(C(=O)c2oc3ccccc3c2NC(=O)Cc2coc3ccc(C)cc23)cc1	inactive: -0.362%
CCOC(=O)c1c(C)[nH]c(C)c1S(=O)(=O)N(C)CC(=O)NCc1ccc(Cl)cc1	inactive: -29.6%
COc1ccc(-n2cnc3cc(C(=O)NC4CCCCCC4)ccc32)cc1	inactive: -2.81%

SMILES	activity change, negative = cytotoxicity
O=C(O)c1ccc2nc(-c3cc4cc(Cl)ccc4oc3=O)[nH]c2c1	inactive: 3.58%
Cc1ccc(-c2nc3c4ccccc4n(CC(=O)NCc4ccc(F)cc4)c(=O)n3n2)cc1	inactive: 1.81%
O=C(CCCCn1c(=O)c2ccccc2n(Cc2cccc(F)c2)c1=O)NCc1ccc2c(c1)OCO2	inactive: 12.5%
Cc1cccc(Nc2c(-c3ccsc3)nc3nc(C)cc(C)n23)c1	inactive: 0.0996%
Cc1ccc(-n2c(=O)c3c(cnn3C)n(Cc3ccc(Cl)cc3)c2=O)cc1	inactive: -20.9%
Cc1cccc(NC(=O)c2oc3ccccc3c2NC(=O)c2cc(=O)c3ccc(C)cc3o2)c1	inactive: 13.9%
Cc1cc(NC(=O)CCc2nc3cccnc3n2Cc2cccs2)ccc1Br	inactive: -34.4%
CCOc1ccc2nc(N3CCCC(C(=O)Nc4cc(C)ccc4C)C3)sc2c1 (stereo not drawn)	inactive: 14.5%
Cc1ccc(NC(=O)Nc2c[nH]c(=O)[nH]c2=O)c(Cl)c1	inactive: -3.07%
CCc1ccccc1NC(=O)CSc1nnc(-c2ccc(OC)cc2)s1	inactive: 2.29%
CC(=O)Nc1ccc(NC(=O)C2CCN(S(=O)(=O)c3ccc4c(c3)CCCC(=O)N4)CC2)cc1	inactive: 18.6%
Cc1ccc(NS(=O)(=O)c2cc(-c3cc(C)no3)ccc2C)c(Cl)c1	inactive: 1.87%
CCOc1ccc(CNC(=O)c2ccc3[nH]c(C)c(C)c3c2)cc1OC	inactive: 15.3%
CCc1ccc(NC(=O)N(Cc2c[nH]c3ccccc23)C2CCCCC2)cc1	inactive: 26.2%
CCOc1cc(C(=O)Nc2ccc(NC(=O)c3cc4ccccc4o3)c(OC)c2)cc(OCC)c1OCC	inactive: -6.3%
Cc1ccc2c(c1)c1c(c(=O)n(-c3ccccc3C)c(=O)n1CC(=O)c1ccc(Cl)cc1)n2C	inactive: -1.72%
COc1ccc(NC(=O)CSC2=Nc3ccccc3N=C(c3ccc(F)cc3)C2)cc1OC	inactive: 19%
CCN(C(=O)CCNC(=O)Cn1cnc2ccccc2c1=O)c1cc(OC)ccc1OC	inactive: -1.81%
CN(C)c1cccc(C(=O)Nc2nc3ccc(S(=O)(=O)N4CCCC4)cc3s2)c1	inactive: -23.6%
CCSc1ncc(Cl)c(C(=O)Nc2nc3ccc(Cl)cc3s2)n1	inactive: -1.27%
CN(C)c1ccc(CNC(=O)CN2C(=O)CSc3ccc(S(=O)(=O)N4CCCC4)cc32)cc1	inactive: 12.4%
CCC1CN(C(=O)N2CCC(C(=O)NCc3cc(OC)c(OC)c(OC)c3)CC2)c2ccccc2O1 (stereo not drawn)	inactive: -1.33%
CN(C)c1ccc(NC(=O)Cn2nnc3sc4c(c3c2=O)CCC(C(C)(C)C)C4)cc1 (stereo not drawn)	inactive: 8.45%
COc1ccc(-c2[nH]ncc2C(=O)NCc2cccc(OC)c2)cc1	inactive: 2.46%
